Paper PMC4336329 (PLoS ONE, 2015)
Screen size: about 310,000 compounds; about 14,000 (4.5%) showed an effect of 50% or more. Effects have a minus sign here. The list shows a part of the results.

What follows are compounds tested against human ether-à-go-go-related gene (hERG) potassium channel (human, UniProt Q12809) (assay: primary screen, population patch clamp on CHO cells stably expressing hERG).
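Also: peak tail current of the secondary pulse compared with the same well before compound.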

Sequence of human ether-à-go-go-related gene (hERG) potassium channel (Q12809 whole entry, looked up): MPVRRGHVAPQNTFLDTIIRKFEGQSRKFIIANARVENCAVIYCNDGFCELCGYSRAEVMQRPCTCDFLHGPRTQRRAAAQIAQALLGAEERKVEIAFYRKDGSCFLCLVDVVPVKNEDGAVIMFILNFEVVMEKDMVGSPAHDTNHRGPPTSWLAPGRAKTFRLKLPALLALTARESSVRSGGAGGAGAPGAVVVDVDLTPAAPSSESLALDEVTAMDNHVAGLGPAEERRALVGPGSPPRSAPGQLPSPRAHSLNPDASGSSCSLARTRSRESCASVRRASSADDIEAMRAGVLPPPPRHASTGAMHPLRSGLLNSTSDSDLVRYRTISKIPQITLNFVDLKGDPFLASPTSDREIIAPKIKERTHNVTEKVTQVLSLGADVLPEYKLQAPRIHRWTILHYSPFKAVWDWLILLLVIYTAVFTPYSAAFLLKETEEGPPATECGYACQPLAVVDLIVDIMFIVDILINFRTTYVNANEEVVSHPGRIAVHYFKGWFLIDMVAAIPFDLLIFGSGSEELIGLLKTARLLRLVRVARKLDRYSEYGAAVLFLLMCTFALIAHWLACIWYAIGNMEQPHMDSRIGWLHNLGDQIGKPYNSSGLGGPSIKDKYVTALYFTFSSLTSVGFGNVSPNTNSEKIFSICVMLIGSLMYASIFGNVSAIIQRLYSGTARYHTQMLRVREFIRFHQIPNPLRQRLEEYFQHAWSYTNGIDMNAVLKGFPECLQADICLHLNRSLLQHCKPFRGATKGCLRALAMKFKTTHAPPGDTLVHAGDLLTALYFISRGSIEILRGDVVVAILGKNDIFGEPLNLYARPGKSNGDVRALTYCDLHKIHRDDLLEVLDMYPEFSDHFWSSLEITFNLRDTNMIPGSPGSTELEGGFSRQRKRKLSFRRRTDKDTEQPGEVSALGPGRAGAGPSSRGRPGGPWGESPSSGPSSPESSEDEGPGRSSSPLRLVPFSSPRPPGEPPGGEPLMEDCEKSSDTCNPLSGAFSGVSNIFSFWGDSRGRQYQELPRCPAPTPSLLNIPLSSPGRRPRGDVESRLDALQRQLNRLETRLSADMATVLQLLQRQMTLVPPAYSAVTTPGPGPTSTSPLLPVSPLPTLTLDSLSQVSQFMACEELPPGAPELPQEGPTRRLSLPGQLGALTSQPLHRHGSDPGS

Row | Structure (SMILES) | hERG current change (%, negative = inhibition) at 10uM [%]
1 | Cc1ccc(N2C(=O)N(CC(=O)Nc3cccc(Cl)c3)C(=O)C2C)cc1 (stereo not drawn) | -14.9
2 | CCOCCCNC(=O)C(c1ccc(Cl)cc1)N1CCN(C(=O)c2ccco2)CC1 (stereo not drawn) | -0.366
3 | CC(NC(=O)COc1ccc(/C=N/NC(=O)C(=O)Nc2ccccc2Br)cc1)c1ccccc1 (stereo not drawn) | -9.07
4 | Cc1cc(C)cc(NC(=S)NCc2cccs2)c1 | -10.7
5 | O=S(=O)(Nc1n[nH]c(C(F)(F)F)n1)c1ccccc1 | -5.34
6 | CC12CCC(=O)N1C(C(=O)NNC(=O)c1cccc(Cl)c1)CS2 (stereo not drawn) | 14.8
7 | CCCCN(CC)CCCNC(=S)Nc1ccc2nc3n(c(=O)c2c1)CCCCC3 | -11.9
8 | CCCCCCSC1=C(C#N)C(c2ccc(C)o2)CC(=O)N1 (stereo not drawn) | -0.783
9 | CC(C)=CC(=O)OCC(=O)Nc1ccc(SC(F)F)cc1 | -9.84
10 | Cc1ccccc1OCC(=O)NCCC(=O)O | 12.1
11 | O=C1CC(=O)N(c2ccccc2F)C(=O)N1 | 23.8
12 | COc1cc(/C=C/C(=O)NCc2ccccn2)cc(OC)c1OC | 6.44
13 | Cc1ccc(/C=N/NC(=O)CSc2nc3ccccc3n2Cc2ccccc2)o1 | -33.9
14 | Clc1ccccc1-c1nnc(-c2ccc3c(c2)OCO3)o1 | 4.43
15 | CC(C)Oc1ccc(NC(=O)C2CCCNC2=O)cc1 (stereo not drawn) | 14.1
16 | CC(C)OCCCN1CN(S(=O)(=O)c2cccs2)c2nc3ccccc3nc21 | -12.1
17 | CC(Nn1cnnc1)c1cc(Cl)ccc1O (stereo not drawn) | 17.2
18 | C=CCn1c(=O)c2ccccc2n2c(SCC(=O)NCCc3ccccc3)nnc12 | -9.99
19 | C/C=C/C(=O)OCC(=O)Nc1c(Cl)cccc1Cl | 4.91
20 | Cc1nn(Cc2ccccc2)c(Cl)c1C(=O)OCC(=O)N1CCCC1 | 8.91
21 | CC1(C(=O)NC2CCCC2)CCC(=O)N1Cc1ccc2c(c1)OCO2 (stereo not drawn) | 2.64
22 | O=C(Nc1ccc(C(=O)O)cc1)/C(=C\c1ccc2c(c1)OCO2)NC(=O)c1ccc(Br)cc1 | 5.36

Row | Structure (SMILES) | hERG current change (%, negative = inhibition) at 10uM [%]
23 | C/C(CCc1ccc2c(c1)OCO2)=N\N=C(/N)SC1CC(=O)N(c2ccccc2F)C1=O (stereo not drawn) | -4.74
24 | CCN(CC)c1nc(Oc2ccc(C(=O)NN)cc2)nc(Oc2ccc(C(=O)NN)cc2)n1 | 9.31
25 | CCN(CC)S(=O)(=O)c1cccc(NC2=NCC(C)S2)c1 (stereo not drawn) | -19.8
26 | CCNc1nc(NCC)nc(-n2nc(C)cc2C)n1 | 3.29
27 | COc1ccc2[nH]c(=O)c(CN(C(C)=O)c3cccc(C)c3)cc2c1 | -8.64
28 | Cc1ccc(S(=O)(=O)N2CCN(c3ncnc4c3cnn4-c3ccccc3)CC2)cc1 | 14.3
29 | COc1ccc(CCNC2=C(Cl)C(=O)N(CCc3ccccc3)C2=O)cc1OC | 1.61
30 | O=C(c1ccccc1)c1cccn1CC(=O)N1CCc2ccccc2C1 | -5.14
31 | O=C1CC(CSc2ccc(Cl)cc2)=NN1 | 9.66
32 | CCC(C)/C(C)=N/NC(=O)c1ccccc1OCCOc1ccccc1 (stereo not drawn) | -30.3
33 | CCOc1ccc(S(=O)(=O)Nc2ccc(S(=O)(=O)N3CCCC3)cc2)cc1 | -3.38
34 | O=C(Cn1nnc(-c2ccc(S(=O)(=O)N3CCCC3)cc2)n1)Nc1ccccc1-n1cccc1 | 0.379
35 | COc1ccc2[nH]c(C)c(C(=O)CN3CC(C)OC(C)C3)c2c1 (stereo not drawn) | 3.52
36 | CC(=O)Nc1nonc1-c1nc2ccccc2n1Cc1ccccc1 | 13.2
37 | O=C(CCCCCN1C(=O)c2ccccc2C1=O)NC1CCCC1 | 6.64
38 | CC(C)(CNc1ccc([N+](=O)[O-])cc1Cl)CNS(C)(=O)=O | -1.02
39 | COc1ccc2c3c([nH]c2c1)[C@H]1C[C@H]2[C@H](C[C@@H](O)[C@H](OC)[C@H]2C(=O)O)CN1CC3.Cl | -7.9
40 | Cc1cc(=O)[nH]c(SCC(=O)Nc2ccc(Br)cc2)c1C#N | 8.39
41 | FC(F)(F)c1ccc(Oc2ccc3cc(Br)ccc3c2)nc1 | 10.1
42 | Cc1cc(NC(=O)c2cccnc2)ccc1Br | 9.26
43 | CCO/C=C1\N=C(c2ccc(F)cc2)OC1=O | 7.48
44 | Cc1cccc(-n2c3nc(=O)[nH]c(=O)c-3cc3cc([N+](=O)[O-])ccc32)c1 | -35.1

Row | Structure (SMILES) | hERG current change (%, negative = inhibition) at 10uM [%]
45 | O=C(CSc1ccc2nnc(-c3cccnc3)n2n1)Nc1ccccc1C(F)(F)F | -33.3
46 | Cc1ccc(C)c(NC(=O)COC(=O)Cc2ccsc2)c1 | 33.1
47 | c1cncc(-c2nnc(-c3cccs3)o2)c1 | 8.22
48 | O=C(CSc1nncs1)N1CCN(S(=O)(=O)c2ccccc2)CC1 | -4.25
49 | CC(C)(C)C(=O)COC(=O)C1=NN(c2ccccc2)C(=O)CC1 | 11.5
50 | N#CCCN(Cc1cccnc1)C(=O)Nc1cccc(Cl)c1 | -10.9
51 | O=C(Nc1ccccc1C(=O)N1CCCC1)c1ncoc1-c1cccc(Cl)c1 | -26
52 | Cc1ccc(C(C(=O)NCC2CCCO2)N(C(=O)c2snc(C(N)=O)c2N)c2ccc3c(c2)OCCO3)cc1 (stereo not drawn) | -1.52
53 | CCOc1ccc(S(=O)(=O)N2CCN(c3ccc(OC)cc3)CC2)c2cccnc12 | -9.79
54 | COc1ccc(C(=O)Nc2ccc(OCc3ccccc3)cc2)cc1[N+](=O)[O-] | 8.97
55 | O=C(CNC(=S)N(Cc1ccccc1)Cc1ccccc1F)NCCc1ccccc1 | 3.73
56 | COc1ccc(N2CC(C)Cn3c2nc2c3c(=O)[nH]c(=O)n2C)cc1 (stereo not drawn) | -24.3
57 | CCOC(=O)COc1nc(OC)nc(N2CCOCC2)n1 | 5.73
58 | CC12CC(c3ccccc3O1)N(C(=O)c1ccco1)C(=S)N2c1ccc(F)cc1 (stereo not drawn) | -10.1
59 | CCCN1CNC(=S)N(Cc2ccccc2)C1 | 12.2
60 | O=C(COC(=O)/C=C/c1ccccc1Cl)NCCc1ccc(Cl)cc1Cl | 7.19
61 | CCN(C(=O)COC(=O)c1cc(S(=O)(=O)N2CCOCC2)c(Cl)cc1Cl)C1CCS(=O)(=O)C1 (stereo not drawn) | 9.86
62 | CCOc1ccc(N2C(=O)CN=C2Nc2ccccc2F)cc1 | 5.08
63 | CC(=O)n1c(C=Nc2ccc(Cl)cc2)c(O)c2ccccc21 | -6.28
64 | Cc1cc(-c2nnc(SCC(=O)Nc3nccs3)o2)no1 | 21.6
65 | CCn1c2ccccc2c2cc(NC(=O)COc3ccccc3OC)ccc21 | 6.08
66 | O=C(NCc1ccc2c(c1)OCO2)C(=O)Nc1ccccc1 | -20.5

Row | Structure (SMILES) | hERG current change (%, negative = inhibition) at 10uM [%]
67 | CCOC(=O)C1(CC2CCCCO2)CCN(S(=O)(=O)c2ccc(OC)cc2)CC1 (stereo not drawn) | -38.3
68 | COc1ccccc1C(=O)C1CCCN(Cc2cccc3nccnc23)C1 (stereo not drawn) | -67.4
69 | CC(/C=N/NC(=O)c1cc(-c2cccnc2)nc2c1c(C)nn2-c1ccccc1)=C\c1ccccc1 | -6.53
70 | COc1cc(CCC(=O)Nc2c(C(=O)N3CCN(c4ccccc4)CC3)oc3ccccc23)on1 | -37.2
71 | Cc1ccc(C(=O)Nc2cccc(NC(=O)CN3CCCCC3)c2)cc1 | -47.3
72 | COC(=O)c1ccc(COC(=O)CNC(=O)c2cccc(OC)c2)o1 | -0.602
73 | COc1ccccc1NC(=O)Nc1nc2ccc(S(N)(=O)=O)cc2s1 | 22.4
74 | CCOC(=O)c1cc(-c2ccccc2)n(CCC(=O)N2CCN(c3ccc(OC)cc3)CC2)c1C | -25.5
75 | O=C(NC(=S)Nc1ccc(Cl)cc1)c1cncc(Br)c1 | 0.877
76 | CC(C)C(C(=O)NCc1ccccc1)N(CC1CCCO1)C(=O)CNS(=O)(=O)c1ccccc1 (stereo not drawn) | 8.75
77 | Cc1ccc(S(=O)(=O)NCC(=O)NCC(=O)OCc2c(F)cccc2Cl)cc1 | 4.12
78 | CC(CC(=O)O)CC(=O)Nc1cc([N+](=O)[O-])ccc1O (stereo not drawn) | -2.89
79 | CC(=O)NCc1ccc2[nH]c(C)cc2c1 | 22.3
80 | O=[N+]([O-])c1ccc(NNC(=S)Nc2ccc(F)cc2)cc1 | -15.6
81 | COc1ccc(C(CNC(=O)c2ccc(-n3cnnn3)cc2)N2CCOCC2)cc1 (stereo not drawn) | -16.2
82 | CCOc1ccc(Nc2nc(NCC(=O)O)nc(N)c2[N+](=O)[O-])cc1 | 6.75
83 | CSc1ccc(Cl)c(C(=O)OCC(=O)N2CCNC2=O)c1 | -1.88
84 | CCN(CC)CCCNCC(=O)Nc1ccc2c(c1)CCC2 | -12
85 | C#CCOCCOCCOCCNc1nc(N2CCN(C(=O)[C@H](Cc3ccc(O)cc3)n3cc([C@@H](N)C(C)CC)nn3)CC2)nc(N2CCN(C(=O)[C@H](CCCCN)n3cc([C@@H](N)CO)nn3)CC2)n1.Cl (stereo partly drawn) | 11.6
86 | COCCN(Cc1cc2cc3c(cc2n2nnnc12)OCO3)C(=O)c1ccccc1F | -9.79
87 | COc1ccc(NC(=O)CSc2ccccc2)c([N+](=O)[O-])c1 | -29
